The inconclusive results got no clear call from the source; some entries with a clear call stand among them for comparison. For part of these data: Where the call is inconclusive, the potency comes from a doubtful curve fit. Activity calls are given as the source filed them. Calls come from the whole dose curve; as a rule, active = well fitted curve in the direction sought with a large enough effect; inconclusive = small, poorly fitted or top-dose-only effect, or another doubt; inactive = no such curve, though single readings can be large; an effect the other way counts as inactive or inconclusive.
Key:
[1] = OV-KATE Cancer Cell Toxicity qHTS against the NCATS CANVASS Library (AID 1347345); conditions: OV-KATE cells viability, CellTiter-Glo luminescence, 72 h; series mostly up to 38.3 µM
In short: (§1)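 Step one: seed 1000 cells per well. Step two: incubate 4 h. Step three: add test compounds in 11 concentrations. Step four: culture 72 h, then add CellTiter-Glo and record luminescence after 15min.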

[2] = HPAF-II Cancer Cell Toxicity qHTS against the NCATS CANVASS Library (AID 1347346); conditions: HPAF-II viability, CellTiter-Glo ATP luminescence, 72 h; series mostly up to 38.3 µM; note: nearly all actives have a fitted effect of over 55% in size
In short: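 HPAF-II cells at 1000 cells/well were treated with an 11-point concentration series for 72 hours at 37 degrees C. Viability read by CellTiter-Glo luminescence.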

[3] = UWB1.289 Cancer Cell Toxicity qHTS against the NCATS CANVASS Library (AID 1347347); conditions: UWB1.289 viability, CellTiter-Glo luminescence, 72 h; series mostly up to 38.3 µM; note: nearly all actives have a fitted effect of over 60% in size
In short: as §1

[4] = SW1088 Cancer Cell Toxicity qHTS against the NCATS CANVASS Library (AID 1347350); conditions: SW1088 viability, CellTiter-Glo luminescence, 72 h; series mostly up to 38.3 µM; note: nearly all actives have a fitted effect of over 75% in size
In short: as §1

[5] = U-118MG Cancer Cell Toxicity qHTS against the NCATS CANVASS Library (AID 1347351); conditions: U-118MG viability, CellTiter-Glo luminescence, 72 h; series mostly up to 38.3 µM
In short: as §1

[6] = UWB1.289-WTBRCA1 Cancer Cell Toxicity qHTS against the NCATS CANVASS Library (AID 1347354); conditions: UWB1.289-WTBRCA1 viability, CellTiter-Glo luminescence, 72 h; series mostly up to 38.3 µM
In short: (§2)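 Cells at 1000/well were given compound 4 h after plating in an 11-point series. Viability was read by CellTiter-Glo luminescence after 72 h at 37 degrees C.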

[7] = MCF7 Cancer Cell Toxicity qHTS against the NCATS CANVASS Library (AID 1347369); conditions: MCF7 viability, ATP luminescence (CellTiter-Glo), 72 h; series mostly up to 46 µM
In short: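 Cells seeded at 500/well, then compound pinned. Plates incubated 72 hr at 37C, 5% CO2. CellTiterGlo added; luminescence read.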

[8] = biological target: Nuclear receptor subfamily 1 group I member 3 (Homo sapiens) (UniProt Q14994); assay: qHTS for Constitutive Androstane Receptor (CAR) Antagonist screened against the NCATS CANVASS Library (AID 1347372); conditions: HepG2-hCAR-CYP2B6 luciferase, CITCO-stimulated antagonist mode; series mostly up to 46.1 µM
In short: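 HepG2-CYP2B6-hCAR double-stable cells plated, 4hr attach; cpd pin-transferred; CITCO 50 nM final; 24hr 37C/5% CO2; CellTiter-Fluor 1hr (fluorescence), then ONE-Glo luminescence.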

[9] = qHTS for Hypoxia signaling pathway (HIF-1) antagonists against the NCATS CANVASS Library (AID 1347374); conditions: HRE-bla ME-180 cells, HIF-1 beta-lactamase reporter, CoCl2; series mostly up to 38.3 µM; note: nearly all actives have a fitted effect of over 60% in size
In short: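 HRE-bla ME-180 cells in medium with 0.5% dialyzed FBS received compounds (11-point series) plus CoCl2 (60 uM addition stock) for 17 hrs at 37C. Beta-lactamase activity read with CCF4 (405 nm ex, 460/530 nm em); CellTiter-Glo viability measured in same wells.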

[10] = qHTS for H2AX Agonists against the NCATS CANVASS Library (AID 1347378); conditions: CHO-K1 H2AX phosphorylation, HTRF TR-FRET, 3 h; series mostly up to 76.9 µM;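 note: phospho-H2AX S139 level in CHO-K1 lysates by TR-FRET emission ratio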
In short: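 CHO-K1, 1000 cells/well, o/n 37C; cpd several conc, 3 hr 37C, 0.76% DMSO; lyse 30 min RT; cryptate anti-pH2AX(S139) + d2 anti-H2AX, 24 hr RT; HTRF 665/620.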

[11] = qHTS for Inflammasome Signaling Inhibitors: IL-1-beta AlphaLISA screen against the NCATS CANVASS Library (AID 1347379); conditions: THP-1 LPS/ATP, IL-1B AlphaLISA secretion, 16 h; series mostly up to 57.5 µM;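 note: human THP-1 cells primed with LPS then triggered with ATP; secreted IL-1B measured as AlphaLISA emission at 615 nm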
In short: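 THP-1 cells pretreated 1 hr with compound (up to 57.5 uM final), then stimulated with LPS (250 ng/mL final) and ATP (1.25 mM final). Secreted IL-1B measured by AlphaLISA after 16 hr; glyburide as positive control.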

[12] = qHTS for Antimalaria activity screened against the NCATS CANVASS Library (AID 1347380); note: nearly all actives have a fitted effect of over 40% in size; conditions: P. falciparum Dd2 growth, SYBR Green fluorescence, 72 h; series mostly up to 28.7 µM
In short: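 Red blood cells infected with P. falciparum Dd2 (2.5% hematocrit final, 0.3% parasitemia) were exposed to compounds in an 11-point qHTS series for 72 hr at 37C under 5% O2 and 5% CO2. Lysis buffer with SYBR Green was then added for 18 hr, and fluorescence was read at 485/535 nm.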

[13] = qHTS for Activators of p53 Stress Response Pathway screened against the NCATS CANVASS Library (AID 1347388); conditions: p53RE-bla HCT-116, beta-lactamase reporter, 16 h; series mostly up to 46.1 µM
In short: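 Beta-lactamase reporter driven by p53 response elements in HCT-116 cells, read as the 460 nm/530 nm emission ratio after CCF4 loading, following 16 h of exposure to an 11-point series. Cell viability was measured in the same wells by CellTiter-Glo luminescence.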

[14] = qHTS for activators of Nrf2/ARE signaling pathway screened against the NCATS CANVASS Library (AID 1347391); conditions: ARE-bla HepG2, beta-lactamase reporter, 16 h; series mostly up to 46.1 µM; note: nearly all actives have a fitted effect of over 60% in size
In short: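 ARE-bla HepG2 beta-lactamase reporter cells exposed to compounds for 16 h at 37C; CCF4 substrate 2 h, fluorescence at ex 405 nm, em 460/530 nm. Viability by CellTiter-Glo luminescence.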

[15] = qHTS for inhibitors of Wild type Zika virus screened against the NCATS CANVASS Library (AID 1347396); conditions: Vero cells, Zika virus CPE, CellTiter-Glo, 72 h; series mostly up to 45.9 µM
In short: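 Luminescent CellTiter Glo read-out of virus-induced cytotoxicity, 72 h post-infection, in Vero 766 cells. Compounds were tested at 11 concentrations; uninfected, vehicle-treated wells defined 100% inhibition.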

[16] = Viability qHTS for inhibitors of the SERCaMP assay screened against the NCATS CANVASS Library (AID 1347400); conditions: SH-SY5Y SERCaMP cells viability, CellTiter-Glo, 48 h; series mostly up to 92.2 µM; note: nearly all actives have a fitted effect of over 70% in size
In short: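 SH-SY5Y-GLuc SERCaMP MJH297-derived cells, 1000/well, plated 4 h, then exposed to compounds in an 11-point qHTS series for 48 h at 37C. Viability read as CellTiter-Glo luminescence.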

[17] = G06 Cancer Cell Toxicity qHTS against the NCATS CANVASS Library (AID 1347368); conditions: G06 dog glioma cells, viability ATP luminescence, 72 h; series mostly up to 46.1 µM; note: nearly all actives have a fitted effect of over 60% in size
In short: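 G06 dog glioma cells, 500 per well, exposed 72 hr at 37C, 5% CO2 to compounds in an 11-point series. Cytotoxicity read as ATP content by CellTiterGlo luminescence.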

[18] = Redox Reaction Profiling qHTS: Assay Interference Panel against the NCATS CANVASS Library (AID 1347401); conditions: resazurin-DTT redox cycling, fluorescence, 15 min; series mostly up to 57.1 µM
In short: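 Cell-free redox surrogate: 5 uM resazurin + 200 uM DTT, 50 mM HEPES pH 7.3/50 mM NaCl; cpds pinned, 11-pt qHTS; Ex525/Em598 read t0 and t=15 min, dark.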

[19] = Tertiary RLuc qRT-PCR qHTS assay for Zika virus inhibitors (AID 1347169); conditions: infected Vero cells, reporter luminescence, 48-72 h; series mostly up to 45.9 µM; note: nearly all actives have a fitted effect of over 55% in size
In short: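 Vero, 1,000 cells/well, o/n 37 C; cpd pinned in DMSO; ZIKV-RLuc Cambodian, MOI 1-2, 48-72 h 37 C; live-cell RLuc substrate, lum read at 1-1.5 h.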

[20] = HEK-293 Cancer Cell Toxicity qHTS against the NCATS CANVASS Library (AID 1347355); conditions: HEK-293 viability, CellTiter-Glo luminescence, 72 h; series mostly up to 46.1 µM; note: nearly all actives have a fitted effect of over 65% in size
In short: as §2

[21] = test system: NAD(P)H diaphorase (Clostridium kluyveri); assay: Diaphorse counterscreen qHTS: Assay Interference Panel against the NCATS CANVASS Library (AID 1347362); conditions: Diaphorase enzyme, resazurin to resorufin fluorescence; series mostly up to 57.5 µM
In short: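 Counterscreen for coupling-enzyme interference: resorufin fluorescence from resazurin/NADH turnover, read after 5 min at room temperature. Compounds were tested over an 11-point series after 15 min dark preincubation with diaphorase in PBS-Tween.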

[22] = KB-8-5-11 Cancer Cell Toxicity qHTS against the NCATS CANVASS Library (AID 1347364); conditions: KB-8-5-11 MDR cells viability, CellTiter-Glo, 72 h; series mostly up to 46.1 µM; note: nearly all actives have a fitted effect of over 75% in size
In short: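 KB-8-5-11 cells, 500/well in DMEM + 10% FBS, given compounds in an 11-point series. Incubated 72 h at 37 °C. Viability by CellTiter-Glo luminescence. Confirmation also run with 1 uM tariquidar.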

[23] = KB-3-1 Cancer Cell Toxicity qHTS against the NCATS CANVASS Library (AID 1347366); conditions: KB-3-1 viability, CellTiter-Glo luminescence, 72 h; series mostly up to 46.1 µM; note: nearly all actives have a fitted effect of over 75% in size
In short: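 Luminescence from CellTiter-Glo (10 min, room temperature) measured KB-3-1 viability after 72 hr compound exposure at 37C. Cells were seeded at 500/well and tested in an 11-point series.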

[24] = Secretion counterscreen for inhibitors of the SERCaMP assay screened against the NCATS CANVASS Library (AID 1347390); conditions: SH-SY5Y constitutive GLuc secretion, luminescence, 20 h; series mostly up to 76.6 µM;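 note: light from luciferase secreted into medium read as a measure of general secretion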
In short: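 SH-SY5Y-GLuc STOP cells; 4 h attach; cpds 0.001 - 77 uM (qHTS, 11 pts), 20 h 37C/5% CO2; coelenterazine in glow buffer; luminescence, 5 s exposure.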

Measured: Potency
Potency is the fitted concentration of half-maximal effect; tags give direction and shape of the fitted curve.

UniProt Q14994, sequence (Q14994 whole entry, looked up): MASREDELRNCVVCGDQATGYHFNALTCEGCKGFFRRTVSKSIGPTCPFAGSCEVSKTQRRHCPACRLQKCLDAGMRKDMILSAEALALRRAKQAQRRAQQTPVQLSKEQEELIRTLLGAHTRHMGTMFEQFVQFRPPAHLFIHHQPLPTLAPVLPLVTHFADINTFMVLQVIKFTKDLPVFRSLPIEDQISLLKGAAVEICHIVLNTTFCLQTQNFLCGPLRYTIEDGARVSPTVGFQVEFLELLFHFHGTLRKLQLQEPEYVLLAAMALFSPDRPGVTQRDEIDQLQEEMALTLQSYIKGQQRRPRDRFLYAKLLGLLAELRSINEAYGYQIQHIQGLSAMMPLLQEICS

C[C@@H](O)[C@H]1OC(=O)C=C2[C@]3(C)[C@H]4[C@H](OC(=O)[C@@]4(C)[C@@H](O)[C@H]4O[C@H]43)[C@H]3O[C@@]231
active: [1] 3.34 µM | [2] 3.35 µM | [3] 2.65 µM | [8] 5.24 µM | [9] 1.49 µM | [11] 12.2 µM | [12] 0.594 µM | [16] 7.6 µM
inconclusive: [4] 6.68 µM [cytotoxic, full curve] | [5] 1.06 µM [cytotoxic, full curve] | [6] 3.34 µM [cytotoxic, full curve] | [7] 11.7 µM [cytotoxic, full curve] | [10] 8.64 µM [activator, full curve] | [13] 0.588 µM [activator, full curve] | [14] 1.17 µM [activator, single point] | [15] 18.5 µM [inhibitor, partial curve, poor fit]

C/C(=C\[C@H](C)C(=O)CCCC1CC(=O)NC(=O)C1)C(O)[C@@H](C)[C@H](O)C/C=C/CC/C=C/C(=O)O (some centres undefined)
inactive: [1] | [14]
inconclusive: [4] 10.6 µM [cytotoxic, partial curve, poor fit] | [17] 11.8 µM [cytotoxic, partial curve, poor fit] | [18] 24.1 µM [activator, partial curve]

N#Cc1ccccc1S(=O)(=O)N[C@H]1CO[C@H]2[C@@H]1OC[C@H]2OC(=O)Nc1ccc(Oc2ccccc2)cc1
active: [19] 7.39 µM

COC(=O)c1cc2cc3c(c(O)c2c(=O)o1)OC1(CC3)CC2=C(O1)C(=O)c1c(O)c(OC)cc(OC)c1C2=O (centres undefined)
active: [14] 10.5 µM
inconclusive: [1] 23.6 µM [cytotoxic, single point] | [3] 21.1 µM [cytotoxic, single point] | [6] 26.5 µM [cytotoxic, single point] | [20] 23.5 µM [cytotoxic, partial curve] | [21] 9.66 µM [inhibitor, partial curve, poor fit] | [22] 37.2 µM [cytotoxic, partial curve, poor fit] | [23] 23.5 µM [cytotoxic, single point] | [17] 26.4 µM [cytotoxic, single point] | [7] 29.4 µM [cytotoxic, single point] | [10] 15.4 µM [activator, full curve] | [11] 38.5 µM [inhibitor, single point] | [13] 9.33 µM [activator, single point] | [24] 43.1 µM [inhibitor, partial curve, poor fit] | [15] 36.9 µM [inhibitor, single point] | [16] 48 µM [cytotoxic, single point] | [18] 17.1 µM [activator, partial curve]

Reference: PubChem BioAssay (NCATS)
